# Source: the supplement of paper PMC3334620
# Over roughly 33,000 sequences, “E-score (-0.5 to 0.5)” has its median near -0.053; the highest 2% begin near 0.37. This is one part of the list.
# Target: Hap1 (UniProt P0CE41)
# Assay: PBM E-score (8-mer binding enrichment) (E-score (-0.5 to 0.5)); higher = stronger / more preferred TF binding; most listed sequences are background and not binding sites
# Settings: protein concentration: 200 nM; construct: GST-DNA-binding domain
# Outline: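 PURExpress in vitro transcription/translation supplied GST-tagged yeast transcription factors, either full-length or DNA-binding domain. Applied at about 100-200 nM to universal all-10-mer Agilent arrays double-stranded by primer extension, the bound protein was detected with fluorescent anti-GST. E-scores, modified Wilcoxon-Mann-Whitney statistics, were given by the Universal PBM Analysis Suite to ungapped eight-base words pooled with their reverse complements after masliner normalisation.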
# UniProt P0CE41, sequence (P0CE41 whole entry): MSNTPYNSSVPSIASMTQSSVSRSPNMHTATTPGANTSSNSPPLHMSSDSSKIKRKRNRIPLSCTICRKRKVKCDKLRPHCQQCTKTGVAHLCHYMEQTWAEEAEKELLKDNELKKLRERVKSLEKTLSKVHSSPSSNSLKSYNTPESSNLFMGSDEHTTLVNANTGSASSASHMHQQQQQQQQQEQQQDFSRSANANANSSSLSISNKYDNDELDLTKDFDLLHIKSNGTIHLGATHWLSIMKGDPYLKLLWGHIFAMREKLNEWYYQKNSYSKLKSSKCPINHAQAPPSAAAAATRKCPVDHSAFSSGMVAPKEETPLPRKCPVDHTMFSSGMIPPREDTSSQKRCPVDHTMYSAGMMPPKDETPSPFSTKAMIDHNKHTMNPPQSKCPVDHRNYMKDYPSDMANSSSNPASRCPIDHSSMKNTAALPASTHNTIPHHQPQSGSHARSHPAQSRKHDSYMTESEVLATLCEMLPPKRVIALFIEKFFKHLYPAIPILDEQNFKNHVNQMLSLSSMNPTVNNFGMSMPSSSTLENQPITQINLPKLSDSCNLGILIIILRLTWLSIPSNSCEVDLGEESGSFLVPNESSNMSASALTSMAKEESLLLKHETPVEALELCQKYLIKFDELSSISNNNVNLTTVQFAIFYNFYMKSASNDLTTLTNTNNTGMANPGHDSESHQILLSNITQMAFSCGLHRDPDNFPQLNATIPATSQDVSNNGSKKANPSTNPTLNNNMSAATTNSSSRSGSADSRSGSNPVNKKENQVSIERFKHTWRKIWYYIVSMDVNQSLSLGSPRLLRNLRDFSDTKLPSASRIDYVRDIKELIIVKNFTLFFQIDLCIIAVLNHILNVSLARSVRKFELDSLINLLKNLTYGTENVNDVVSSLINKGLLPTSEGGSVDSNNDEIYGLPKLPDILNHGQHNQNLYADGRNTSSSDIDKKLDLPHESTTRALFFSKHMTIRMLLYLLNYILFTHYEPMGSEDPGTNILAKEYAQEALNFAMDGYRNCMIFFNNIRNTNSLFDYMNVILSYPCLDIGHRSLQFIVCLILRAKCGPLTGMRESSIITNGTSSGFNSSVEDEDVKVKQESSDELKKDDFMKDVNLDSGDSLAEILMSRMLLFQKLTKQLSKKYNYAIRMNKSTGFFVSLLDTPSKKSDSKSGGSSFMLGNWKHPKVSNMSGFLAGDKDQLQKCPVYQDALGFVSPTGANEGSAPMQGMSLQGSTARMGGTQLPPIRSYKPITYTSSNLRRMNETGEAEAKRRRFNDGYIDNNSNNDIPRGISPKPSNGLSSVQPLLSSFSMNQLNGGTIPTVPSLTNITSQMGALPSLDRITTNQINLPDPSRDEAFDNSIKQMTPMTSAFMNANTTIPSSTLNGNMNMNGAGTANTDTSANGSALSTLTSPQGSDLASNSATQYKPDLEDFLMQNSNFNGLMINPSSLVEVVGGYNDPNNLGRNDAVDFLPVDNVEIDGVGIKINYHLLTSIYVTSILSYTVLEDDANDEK
row,Sequence,PBM E-score
1,ACGGCACA,-0.0818
2,AACGGACT,0.337
3,ACATCCAA,-0.173
4,GTCCTCCA,-0.034
5,GTTTATTA,0.219
6,CCTAGGAG,-0.216
7,ATCGGAAG,0.236
8,TAATAGTA,0.0798
9,GGGCGGAA,0.267
10,AAGTAGTG,-0.0883
11,ATTGTTGA,-0.174
12,ATAACACA,-0.24
13,ATGCAAGC,-0.1
14,GGTAGCAA,-0.17
15,AGTTAGAC,0.0109
16,ATAGATCA,-0.13
17,CTGGCAAC,-0.119
18,AGTCAGAA,-0.167
19,TATCTAGA,-0.24
20,CGGCACAC,0.103
21,ACAGCCTG,-0.221
22,CATGATGG,-0.328
23,GAAGCAGC,-0.0657
24,AGGTAGCC,-0.142
25,CATCGGCC,0.317

row,Sequence,PBM E-score
1,CATATTGC,-0.0347
2,ATCTAATC,0.038
3,CTTGAGTA,0.0976
4,ACAGAAGG,-0.226
5,CTAGTAAG,-0.205
6,ACGCTACT,0.108
7,ATTTATAA,0.104
8,CAGGCAGC,-0.07
9,AGATCATC,-0.0799
10,ACGAAGAG,-0.215
11,AGAGCTAA,-0.157
12,CCGGATGC,0.26
13,AAGGAGAA,-0.103
14,ATAGTTGA,-0.0113
15,ATACTCTG,-0.0685
16,ACCCAACA,-0.0786
17,CTTGATTC,-0.117
18,ATATGAGA,0.0229
19,CCCATTAG,-0.355
20,ACTAATTG,0.0402
21,ACGTCGAG,-0.282
22,GAACGTGC,-0.131
23,GAGAGTGC,-0.219
24,CGTGCAAA,-0.0966
25,GGCAAACA,-0.0204

row,Sequence,PBM E-score
1,CCAGATCC,0.0814
2,GGGCACAA,-0.0367
3,ACGGTCCG,0.316
4,GTCGAAGA,-0.0506
5,CGTAGACG,-0.0296
6,CGACGTAC,-0.0281
7,AACAACTC,-0.19
8,CGCCCTAC,-0.13
9,GCGTGTAA,-0.108
10,TCATATAA,-0.158
11,TAAATTCA,-0.165
12,CCACCAGA,-0.324
13,GTACATCA,0.019
14,ATCGAATA,-0.193
15,AGCTGCCT,-0.11
16,CTCTAGAA,-0.259
17,GGGAGAGA,-0.156
18,AGCTTTAG,-0.237
19,CCTTGGGC,-0.0386
20,ATAAACAT,0.0197
21,GAATTGGC,-0.0612
22,GTATGCAA,-0.15
23,ACCGTGTA,-0.124
24,CAATCCAC,-0.00364
25,TAAGCTGA,0.0387

row,Sequence,PBM E-score
1,AACCGGTA,0.331
2,TAACCTAA,-0.0745
3,CTGAAGAA,-0.27
4,CTCACCAC,-0.158
5,CCGTCTAA,0.16
6,CTGTAAGA,-0.217
7,ATGGCCAC,-0.195
8,TAAGAGGA,-0.0474
9,ATGAAAAT,-0.146
10,CAGTTCAG,-0.162
11,AAAATTAC,-0.122
12,AAGGCGAG,-0.225
13,GTTGAAAA,-0.0338
14,AGGCCATG,-0.153
15,GCAAAAAC,-0.00489
16,CTCAAGAC,-0.0626
17,ACCTATAG,-0.287
18,TCAGTAAA,-0.128
19,CCTCATAC,-0.102
20,GTTAACTA,0.194
21,CGCCGCGA,0.213
22,CGTCCCAA,-0.136
23,CTCACCCC,0.075
24,CATCTCCC,0.104
25,CGACTGCA,-0.0641

row,Sequence,PBM E-score
1,AACCGACT,0.125
2,AACAAACC,0.178
3,AGTGACTA,-0.139
4,ACAGATGC,-0.196
5,AGCAGATC,-0.272
6,ATATTTGC,0.0549
7,ATCGCAGG,-0.203
8,GAGCGTGC,0.032
9,GCAGAGGC,-0.106
10,AAATAACG,0.164
11,ATCGCCTG,-0.0484
12,CGGGCGAG,0.319
13,AGACGCAA,-0.0396
14,GGGCAGAA,0.0923
15,CACTTTAG,-0.0543
16,ATTGAGAC,-0.1
17,GGATGTAA,0.256
18,GGATTCTA,0.0827
19,CTCGTAGC,-0.117
20,ATCTGTTC,-0.00788
21,GGCTCAAC,-0.099
22,CCGAAATC,0.401
23,CCCTTACG,-0.0397
24,CGTCTTAC,-0.199
25,TGTGCAAA,-0.321

row,Sequence,PBM E-score
1,CATATCTA,0.0111
2,AGCGGGTA,0.0635
3,AACACGCA,0.00552
4,CGTCTCCC,0.0505
5,AGACTTGA,-0.242
6,GCATGCGC,0.0178
7,AGTACAAT,-0.0788
8,TGTTGGAA,-0.0847
9,CATGCCCC,0.0313
10,CTGTCCAC,-0.0628
11,AAATATAA,0.0848
12,CCACGAGG,0.0462
13,ACTACAGC,0.0243
14,CCGGGCGA,0.376
15,AAACCGAG,0.267
16,ATGACACG,0.0111
17,AGCGTCGC,-0.0992
18,AGGACGGA,0.199
19,GCATAATA,-0.0527
20,AAGCAGGG,-0.0962
21,ACAATTTG,-0.197
22,AAACTGTA,-0.0605
23,GGTGGGGA,-0.0231
24,AGTGTAAT,-0.0838
25,CACTAAAC,-0.0365

row,Sequence,PBM E-score
1,AAACGGCG,0.162
2,AGCGAGGA,-0.0133
3,CATGAAAG,-0.0192
4,CATACGGA,0.289
5,CCGGGCGC,0.331
6,AGGGCAAA,-0.0601
7,GCTGCAAC,0.0221
8,GCGCAAAC,0.0375
9,ATGTGTTC,0.0657
10,GCCAGCAC,-0.187
11,TCCGGAAA,0.445
12,CGCACCCG,0.224
13,TCGACGAA,-0.157
14,GTTAGGAA,-0.0616
15,ATGCCCGC,0.271
16,CACATGAG,-0.348
17,CAACTACC,-0.0421
18,CGAGCGCA,0.126
19,TAGACGCA,-0.174
20,ACTTAAAC,-0.0625
21,GCTTGTTA,0.0177
22,GCCCTTTA,-0.0786
